Source: publication PMC10301922, “Anti-Oxidant, Anti-Mutagenic Activity and Safety Evaluation of Antrocin” (Toxics, 2023)

Test system: five Salmonella typhimurium tester strains
Assay: Ames test, overall result in five tester strains
Conditions: TA98, TA100, TA102, TA 1535, TA1537, with or without S9, up to 0.05 mg/plate

In the case of `C=C1CC[C@H]2C(C)(C)CCC[C@@]23C(=O)OC[C@@H]13` [Antrocin, (-)-Antrocin], the mutagenic effect is reported as “no mutagenic effect”.
